# Assay results reported in PubChem BioAssay AID1768 (National Center for Advancing Translational Sciences (NCATS), 2009).
# Values joined by “and” are separate entries in the source; they are usually repeats but may differ in a detail not shown here. Equal values may be shown once. The campaign covered roughly 270,000 compounds. About 620 (0.23%) were called active. Inconclusive results, whose numbers are uncertain, are shown with a selection of clear calls. Calls come from the whole dose curve; as a rule, active = well fitted inhibition curve with a large enough effect in the polarisation, with a control signal flat (not every such curve was filed as active); inconclusive = small, poorly fitted or top-dose-only effect, or effect the other way, or a change in a side signal; inactive = no such curve, though single readings can be large or run the other way; the % refers to the polarisation. Where the call is inconclusive, the potency comes from a doubtful curve fit. “Side channel” marks fits to a control or component signal instead of the main read-out.
# Biological target: Menin (Homo sapiens) (UniProt O00255)
# Sequence of UniProt O00255 (O00255 whole entry, looked up): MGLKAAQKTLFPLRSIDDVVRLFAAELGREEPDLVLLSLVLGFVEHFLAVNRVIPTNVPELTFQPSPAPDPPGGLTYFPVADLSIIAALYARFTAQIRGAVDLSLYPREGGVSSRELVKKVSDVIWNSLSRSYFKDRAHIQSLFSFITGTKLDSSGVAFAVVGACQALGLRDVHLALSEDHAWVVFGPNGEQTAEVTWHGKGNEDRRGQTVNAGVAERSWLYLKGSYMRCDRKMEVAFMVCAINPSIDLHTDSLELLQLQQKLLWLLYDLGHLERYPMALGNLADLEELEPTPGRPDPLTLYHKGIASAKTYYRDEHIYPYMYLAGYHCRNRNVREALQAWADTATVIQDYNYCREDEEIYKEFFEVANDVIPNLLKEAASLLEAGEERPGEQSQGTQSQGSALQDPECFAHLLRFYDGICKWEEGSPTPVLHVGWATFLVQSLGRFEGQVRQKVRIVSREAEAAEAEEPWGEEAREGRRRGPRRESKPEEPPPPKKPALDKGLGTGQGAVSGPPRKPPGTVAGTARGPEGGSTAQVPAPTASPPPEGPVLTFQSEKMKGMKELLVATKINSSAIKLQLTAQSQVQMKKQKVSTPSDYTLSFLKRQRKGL
# Assay: qHTS Assay for Inhibitors Targeting the Menin-MLL Interaction in MLL Related Leukemias: Competition With Texas Red Labeled MLL-derived Mutant Peptide; for FP activity change, negative = inhibition: % of control where 0% means no effect
# Conditions: fluorescence polarization; series mostly up to 61.6 µM; FP activity change, negative = inhibition: at the top concentration
# Potency is the fitted concentration of half-maximal effect; tags give direction and shape of the fitted curve or compound fluorescence and quenching.
Structure (SMILES),Potency,"FP activity change, negative = inhibition"
CN1C(=O)C(=Cc2ccc(Sc3ccccc3)o2)C(=O)N(C)C1=O,"inconclusive: 3.98 µM [fluorescent, side channel, full curve]",
OC1(c2ccc(Cl)cc2)CCN(Cc2c[nH]c3ccccc23)CC1,"inconclusive: 11.2 µM [fluorescent, side channel, partial curve]",
Clc1ccccc1C1NCc2ccccc2-n2cccc21 (configuration not stated),,inactive: -17.7%
O=C(c1ccco1)c1cn(Cc2ccccc2Cl)c2ccccc12,,inactive: 13.5%
C[C@]12O[C@H](C[C@@]1(O)C(=O)O)n1c3ccccc3c3c4c(c5c6ccccc6n2c5c31)CNC4=O,,inactive: -12.3%
Oc1cc2c(cc1O)[C@H]1c3ccccc3CN[C@@H]1CC2,,inactive: -0.729%
COc1c2c(c(CC=C(C)C)c3oc(=O)c(-c4ccc(O)cc4)c(O)c13)OC(C)(C)C=C2,"inconclusive: 31.6 µM [quencher, side channel, partial curve]",
O=C1C=CC(=O)c2c(O)cccc21,"inconclusive: 1 µM [quencher, side channel, full curve] and inconclusive: 1.12 µM [quencher, side channel, full curve]",
O=C(NC(Oc1ccccc1)C(Cl)(Cl)Cl)c1ccccc1 (configuration not stated),"inconclusive: 17.8 µM [inhibitor, partial curve]",
C/C(=N\N1CCCCC1c1cccnc1)c1c(O)n(C2CCCCC2)c(=S)[nH]c1=O (configuration not stated),"inconclusive: 7.94 µM [fluorescent, side channel, partial curve]",
CC(C)CCn1c(=O)c(C(=O)Nc2ccccc2S(N)(=O)=O)c(O)c2ccccc21,"inconclusive: 39.8 µM [inhibitor, single point]",
OC(c1cccc(Cl)c1)(c1cccc(Cl)c1)C1CN2CCC1CC2 (configuration not stated),,inactive: -8.35%
CC1OC(=O)C(C(C)C)NC(=O)C(C(C)C)OC(=O)C(C(C)C)NC(=O)C(C)OC(=O)C(C(C)C)NC(=O)C(C(C)C)OC(=O)C(C(C)C)NC(=O)C(C)OC(=O)C(C(C)C)NC(=O)C(C(C)C)OC(=O)C(C(C)C)NC1=O (configuration not stated),"inconclusive: 2 µM [inhibitor, full curve]",
O=C(COc1ccc(Cl)cc1Cl)N1CCN(C/C=C/c2ccccc2)CC1,"inconclusive: 15.8 µM [fluorescent, side channel, partial curve]",
Cc1cc(Oc2cc(NN3CCCCC3)c([N+](=O)[O-])cc2[N+](=O)[O-])ccc1[N+](=O)[O-],"inconclusive: 31.6 µM [quencher, side channel, partial curve]",
CCOc1cc2c(cc1OCC)-n1cccc1C(c1ccc(OC)c(OC)c1)NC2 (configuration not stated),"inconclusive: 20 µM [fluorescent, side channel, partial curve]",
O=C(O)C1C2c3ccccc3C(c3ccccc32)C1C(=O)Nc1ccccc1 (configuration not stated),"inconclusive: 15.8 µM [quencher, side channel, partial curve]",
CN1C(=O)C(=Cc2ccc(N3CCCCCC3)o2)C(=O)N(C)C1=S,"inconclusive: 3.16 µM [inhibitor, full curve]",
Cc1c2cnn(CC(=O)N3CCC4(CC3)OCCO4)c(=O)c2c(C)n1Cc1ccccc1,"inconclusive: 3.55 µM [inhibitor, single point]",

Structure (SMILES),Potency,"FP activity change, negative = inhibition"
C=CC[C@]1(O)CC[C@H]2[C@@H]3CCC4=CC(=O)CCC4=C3C=C[C@@]21C,,inactive: -5.04%
CC(C)(C)OC(=O)C(Br)CCBr (configuration not stated),,inactive: 2.1%
Cc1cc2c(s1)Nc1ccccc1N=C2N1CCN(C)CC1,"inconclusive: 4.47 µM [inhibitor, single point] and inconclusive: 5.01 µM [inhibitor, full curve, poor fit]",
COc1cc2c(cc1OC)-c1c(O)c(OC)cc3c1[C@H](C2)N(C)CC3,"inconclusive: 31.6 µM [inhibitor, partial curve]",
C=C(C)C1CCC(C)=CC1c1c(OC)cc(C)cc1OC (configuration not stated),"inconclusive: 1.12 µM [inhibitor, full curve]",
O=c1[nH]c(=O)n(CCc2ccc(F)cc2)c(O)c1C=NCc1ccc2c(c1)OCO2,"inconclusive: 35.5 µM [inhibitor, single point]",
O=c1[nH]c(O)c(N=Nc2cc([N+](=O)[O-])ccc2O)c(=O)[nH]1,"inconclusive: 20 µM [fluorescent, side channel, partial curve]",
N#CC(=Cc1ccc(O)c(O)c1)C(N)=S,,inactive: 10.8%
CCCCCC1C(=O)O[C@H](C)[C@@H](NC(=O)c2cccc(NC=O)c2O)C(=O)OC(C)C1OC(=O)CC(C)C (some centres not stated),"inconclusive: 12.6 µM [quencher, side channel, partial curve]",
CCCn1cc2c3c(cccc31)C1CC(C)CN(C)C1C2 (configuration not stated),"inconclusive: 3.16 µM [inhibitor, full curve]",
CN(N=O)c1ccc(O)c(O)c1,"inconclusive: 20 µM [quencher, side channel, partial curve]",
Cc1ccccc1C(O)(Cc1ccccc1)C1CN2CCC1CC2 (configuration not stated),"inconclusive: 14.1 µM [fluorescent, side channel, partial curve]",
Cc1ccc(Cn2nc(C(=O)Nc3ccc(Br)cc3)cc2C)cc1,"inconclusive: 35.5 µM [fluorescent, side channel, single point]",
COc1ccc(N2C(=O)NC(=O)/C(=C\c3cn(C)c4ccccc34)C2=O)cc1,"inconclusive: 35.5 µM [fluorescent, side channel, single point]",
C/C(N)=C(/C#N)C(=O)CSc1nc2cc(Cl)ccc2c(=O)n1-c1ccc(C)cc1,"inconclusive: 22.4 µM [inhibitor, single point]",
CN1CC(C(=O)c2cccc(C(F)(F)F)c2)C(c2ccc(Cl)cc2)C1 (configuration not stated),"inconclusive: 2.82 µM [inhibitor, full curve, poor fit]",
Nc1c([N+](=O)[O-])ccc(Oc2ccccc2)c1Cl,,inactive: 16.9%
Cc1ccc2c(CN3CC=C(c4ccccc4)CC3)cc(=O)oc2c1C,"inconclusive: 20 µM [inhibitor, partial curve]",
Cn1c(=O)oc2cc(S(=O)(=O)N3CCC(C(=O)Nc4ccc(OC(F)(F)F)cc4)CC3)ccc21,"inconclusive: 39.8 µM [fluorescent, side channel, single point]",

Structure (SMILES),Potency,"FP activity change, negative = inhibition"
O=C1NC(=O)C(=Cc2ccccc2Oc2ccc(F)cc2)C(=O)N1,,inactive: 21.1%
CCOc1cc2c(cc1OCC)-n1cccc1C(c1cccc(F)c1F)NC2 (configuration not stated),"inconclusive: 12.6 µM [fluorescent, side channel, partial curve]",
C[C@]12CC[C@@H](O)CC1CCC1C2CC[C@]2(C)C(=O)CC[C@@H]12 (some centres not stated),"inconclusive: 17.8 µM [fluorescent, side channel, single point]",
O=C(Oc1ccc(Cl)c2cccnc12)N1CCCCCC1,"inconclusive: 7.94 µM [fluorescent, side channel, full curve, poor fit]",
C=CCN1C[C@H](C)N([C@H](c2ccc(C(=O)N(CC)CC)cc2)c2cccc(OC)c2)C[C@H]1C,"inconclusive: 22.4 µM [fluorescent, side channel, partial curve, poor fit]",
COc1ccc([N+](=O)[O-])cc1NC(=O)COC(=O)c1ccccc1C(=O)c1ccccc1,"inconclusive: 15.8 µM [quencher, side channel, partial curve]",
CCN1CCN(c2ccc(NC(=O)C(C)C)cc2Cl)CC1,,inactive: 91.5%
CCOc1cccc(N2C(=O)/C(=C/c3ccco3)C(=O)NC2=S)c1,"inconclusive: 35.5 µM [quencher, side channel, single point]",
Cc1cccc(CCNCc2cc3ccc(C)cc3[nH]c2=O)c1,"inconclusive: 39.8 µM [fluorescent, side channel, single point]",
O=C1NC(=O)C(=Cc2csc3ccccc23)C(=O)N1,"inconclusive: 31.6 µM [quencher, side channel, single point]",
CC1=CC(=O)c2c(O)cccc2C1=O,"inconclusive: 11.2 µM [quencher, side channel, partial curve] and inconclusive: 10 µM [quencher, side channel, partial curve]",
Cc1[nH]n(-c2ccccc2)c(=O)c1C(c1ccc([N+](=O)[O-])cc1)c1c(C)[nH]n(-c2ccccc2)c1=O,,inactive: 8.05%
COc1cc2c(cc1OC)[C@@]13CCN4CC5=CCOC6CC(=O)N2C1[C@H]6[C@@H]5C[C@@H]43 (some centres not stated),"inconclusive: 14.1 µM [inhibitor, partial curve]",
Oc1ccc(C(=C(Cl)Cl)c2ccc(O)cc2)cc1,"inconclusive: 31.6 µM [quencher, single point]",
COc1ccc(-c2oc3cc(OC)ccc3c(=O)c2O)cc1,"inconclusive: 14.1 µM [fluorescent, side channel, single point]",
CC(Oc1ccc(Cl)cc1Cl)C(=O)Nc1ccc(S(=O)(=O)Nc2cnc3ccccc3n2)cc1 (configuration not stated),"inconclusive: 28.2 µM [quencher, side channel, partial curve]",
CC(C)CCCC(C)C1CCC2C3C(=O)C=C4CC(O)CC[C@@]4(C)C3CC[C@@]12C (some centres not stated),"inconclusive: 3.98 µM [inhibitor, single point]",
COc1ccc(-c2nnc3sc(C4CCCCC4)nn23)cc1OC,"inconclusive: 1 µM [fluorescent, side channel, full curve]",
C=CCO[C@@H](Cn1ccnc1)c1ccc(Cl)cc1Cl,"inconclusive: 20 µM [inhibitor, single point]",
